In the supplement of paper PMC9446081 one finds relative growth data, which are given here for 17 compounds.

Molecules are shown by their SMILES. In all, about 39,000 compounds went through this assay and about 220 (0.56%) showed activity. The list shows a part of the results.
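Also: static incubation at 37 °C against the wild-type strain, values averaged over two biological replicates.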

The experiment relates to Escherichia coli K-12 BW25113. Put plainly: relative growth (OD600 normalised to plate interquartile mean) (fraction); higher = less growth inhibition, active = 0.2 or less. The settings on record: 50 µM; LB; incubation time: overnight (16-24 h).
`C[C@H](NC(=O)N(C)C[C@H]1OCc2ccccc2-c2ccccc2C(=O)N([C@@H](C)CO)C[C@H]1C)c1ccccc1`: the relative growth was inactive: 1.

As for `CC(C)NC(=O)N(C)C[C@H]1Oc2c(NS(=O)(=O)c3ccc(Cl)cc3)cccc2C(=O)N([C@H](C)CO)C[C@@H]1C`, the relative growth is inactive: 1.

On to `C[C@H](CO)N1C[C@H](C)[C@@H](CN(C)S(=O)(=O)c2cn(C)cn2)Oc2cc(C#Cc3cccc(F)c3)ccc2S1(=O)=O`, for which the relative growth was inactive: 1.03.

With `CN1C(=O)[C@@H]2[C@@H](C(=O)c3ccccn3)[C@@H]2C1=O`, the relative growth was inactive: 1.04.

For `C[C@@H]1CN([C@H](C)CO)C(=O)Cc2cc(NC(=O)CCN3CCOCC3)ccc2O[C@@H]1CN(C)C(=O)Nc1ccccc1`, the relative growth was inactive: 0.992.

On to `Oc1cc2c(cc1O)C1c3ccc(O)c(O)c3OCC1(O)C2` (configuration not stated), for which the relative growth is inactive: 0.716.

In the case of `O=S(=O)(NCC[C@H]1CC[C@H](NS(=O)(=O)c2cccc(Cl)c2)[C@@H](CO)O1)c1cccc(F)c1`, the relative growth is inactive: 0.978.

Consider `C[C@@H](SC(=S)N1CCOCC1)C(=O)O`, for which the relative growth was inactive: 1.01.

Take `C[C@H](CO)N1C[C@H](C)[C@H](CN(C)C(=O)NC2CCCCC2)Oc2cc(-c3cccnc3)ccc2S1(=O)=O`: the relative growth is inactive: 0.985.

Take `COc1ccc(NC(=O)Nc2ccc3c(c2)C(=O)N([C@H](C)CO)C[C@@H](C)[C@H](CN(C)Cc2ccccc2)OCCCC[C@H](C)O3)cc1`: the relative growth was inactive: 0.979.

Take `COc1ccc(NC(=O)Nc2ccc3c(c2)C(=O)N([C@H](C)CO)C[C@@H](C)[C@@H](CN(C)S(=O)(=O)c2ccc(C)cc2)OCCCC[C@H](C)O3)cc1`: the relative growth is inactive: 1.02.

On to `C[C@H](CO)N1C[C@H](C)[C@H](CN(C)Cc2ccncc2)Oc2ccc(NC(=O)Nc3ccc(C(F)(F)F)cc3)cc2C1=O`, for which the relative growth is inactive: 0.95.

On to `C[C@@H]1CCCCO[C@H](CN(C)CC2CCCCC2)[C@@H](C)CN([C@H](C)CO)C(=O)c2cc(NC(=O)NC3CCCCC3)ccc2O1`, for which the relative growth was inactive: 1.02.

Take `Cc1noc(C)c1NC(=O)Nc1ccc2c(c1)CC(=O)N([C@@H](C)CO)C[C@@H](C)[C@H](CN(C)S(=O)(=O)c1cn(C)cn1)O2`: the relative growth is inactive: 0.947.

For the compound `C[C@@H]1CN([C@H](C)CO)C(=O)c2cc(NC(=O)Nc3ccc4c(c3)OCO4)ccc2O[C@@H](C)CCCCO[C@@H]1CN(C)S(=O)(=O)c1ccc(F)cc1`, the relative growth was inactive: 1.01.

For `C[C@H](CO)N1C[C@H](C)[C@@H](CN(C)Cc2ccc(Oc3ccccc3)cc2)Oc2c(NC(=O)C3CC3)cccc2C1=O`, the relative growth was inactive: 0.999.

On to `COc1ccc(S(=O)(=O)N(C)C[C@H]2OCCCC[C@@H](C)Oc3ccc(NS(C)(=O)=O)cc3C(=O)N([C@@H](C)CO)C[C@@H]2C)cc1`, for which the relative growth was inactive: 1.02.
